Results as given in the supplement of paper PMC9151546.
Structures can show the parent of a compound that is named as a salt. Repeats are few or missing, and single values can be far off.

Experiments:
CHO-K1 [1] = assay: micronucleus frequency (% of nucleated events); higher = more micronuclei (genotoxic)
CHO-K1 [2] = assay: hypodiploid nuclei frequency (% of nucleated events); higher = more hypodiploid events (aneugenic)
CHO-K1 [3] = assay: relative survival (nuclei to bead ratio vs DMSO control) (% of vehicle control); higher = more surviving cells
Description: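 Flow-cytometric in vitro micronucleus assay (Litron MicroFlow) in CHO-K1 cells in 96-well plates, 19 concentrations (4.5-200 µM, n=1 per concentration). Without S9, cells were exposed for 24 h and sampled at 48 h. With Aroclor 1254-induced rat liver S9, cells were exposed for 3-4 h and sampled at 27-28 h. Read-outs are %MN and %hypodiploid nuclei relative to nucleated events, and relative survival as the nuclei-to-bead ratio versus the 1% DMSO vehicle control (x100).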
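Throughout, for hypodiploid nuclei frequency (% of nucleated events): hypodiploid nuclei gated on a flow cytometer with 488 nm excitation after SYTOX Green staining, cultures at 37 °C, positive controls vinblastine without S9 and cyclophosphamide with S9.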
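Throughout, for micronucleus frequency (% of nucleated events): cells lysed with nuclei stained by SYTOX Green, then micronucleus-gated events counted against nucleated events by flow cytometry with 488 nm excitation.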
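Throughout, for relative survival (nuclei to bead ratio vs DMSO control): Lysed-cell nuclei stained with SYTOX Green and counted against counting beads by flow cytometry at 488 nm excitation, with vinblastine (no S9) and cyclophosphamide (plus S9) as positive controls.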

CC(=O)c1ccccc1 [Acetophenone]
Conditions | hypodiploid nuclei frequency, CHO-K1 [2] [%] | micronucleus frequency, CHO-K1 [1] [%] | relative survival, CHO-K1 [3]
concentration: 4.53 (µM), S9 metabolic activation: with S9, exposure time: 3-4 hours | 0.16 | 1.66 | 136
concentration: 4.53 (µM), S9 metabolic activation: without S9, exposure time: 24 hours | 0.6 | 2.54 | 118
concentration: 5.66 (µM), S9 metabolic activation: with S9, exposure time: 3-4 hours | 0.28 | 2.24 | 128
concentration: 5.66 (µM), S9 metabolic activation: without S9, exposure time: 24 hours | 0.48 | 1.44 | 96.9
concentration: 7.07 (µM), S9 metabolic activation: with S9, exposure time: 3-4 hours | 0.36 | 1.92 | 128
concentration: 7.07 (µM), S9 metabolic activation: without S9, exposure time: 24 hours | 0.68 | 1.74 | 79.6
concentration: 8.84 (µM), S9 metabolic activation: with S9, exposure time: 3-4 hours | 0.28 | 1.66 | 119
concentration: 8.84 (µM), S9 metabolic activation: without S9, exposure time: 24 hours | 0.58 | 1.52 | 84.9
concentration: 11.1 (µM), S9 metabolic activation: with S9, exposure time: 3-4 hours | 0.54 | 2.94 | 125
concentration: 11.1 (µM), S9 metabolic activation: without S9, exposure time: 24 hours | 0.74 | 1.96 | 86.3
concentration: 13.8 (µM), S9 metabolic activation: with S9, exposure time: 3-4 hours | 0.22 | 1.58 | 126
concentration: 13.8 (µM), S9 metabolic activation: without S9, exposure time: 24 hours | 0.46 | 1.92 | 72.5
concentration: 17.3 (µM), S9 metabolic activation: with S9, exposure time: 3-4 hours | 0.32 | 2.26 | 124
concentration: 17.3 (µM), S9 metabolic activation: without S9, exposure time: 24 hours | 0.5 | 3.18 | 79.6
concentration: 21.6 (µM), S9 metabolic activation: with S9, exposure time: 3-4 hours | 0.24 | 1.72 | 104
concentration: 21.6 (µM), S9 metabolic activation: without S9, exposure time: 24 hours | 0.92 | 3.98 | 94.8
concentration: 27 (µM), S9 metabolic activation: with S9, exposure time: 3-4 hours | 0.58 | 2.32 | 111
concentration: 27 (µM), S9 metabolic activation: without S9, exposure time: 24 hours | 1 | 3.68 | 78.1
concentration: 33.7 (µM), S9 metabolic activation: with S9, exposure time: 3-4 hours | 0.12 | 1.4 | 88.5
concentration: 33.7 (µM), S9 metabolic activation: without S9, exposure time: 24 hours | 0.8 | 1.74 | 93.1
concentration: 42.2 (µM), S9 metabolic activation: with S9, exposure time: 3-4 hours | 0.42 | 1.62 | 96
concentration: 42.2 (µM), S9 metabolic activation: without S9, exposure time: 24 hours | 0.68 | 1.72 | 73.8
concentration: 52.7 (µM), S9 metabolic activation: with S9, exposure time: 3-4 hours | 0.4 | 2.52 | 97.3
concentration: 52.7 (µM), S9 metabolic activation: without S9, exposure time: 24 hours | 0.88 | 2.48 | 73
concentration: 65.9 (µM), S9 metabolic activation: with S9, exposure time: 3-4 hours | 0.16 | 1.36 | 99.2
concentration: 65.9 (µM), S9 metabolic activation: without S9, exposure time: 24 hours | 1.16 | 1.92 | 69
concentration: 82.3 (µM), S9 metabolic activation: with S9, exposure time: 3-4 hours | 0.42 | 1.72 | 87
concentration: 82.3 (µM), S9 metabolic activation: without S9, exposure time: 24 hours | 1 | 1.86 | 69.9
concentration: 103 (µM), S9 metabolic activation: with S9, exposure time: 3-4 hours | 0.3 | 1.54 | 104
concentration: 103 (µM), S9 metabolic activation: without S9, exposure time: 24 hours | 1.12 | 2.9 | 60.9
concentration: 129 (µM), S9 metabolic activation: with S9, exposure time: 3-4 hours | 0.24 | 1.16 | 79.9
concentration: 129 (µM), S9 metabolic activation: without S9, exposure time: 24 hours | 0.86 | 2.14 | 59.1
concentration: 161 (µM), S9 metabolic activation: with S9, exposure time: 3-4 hours | 0.32 | 1.32 | 79.4
concentration: 161 (µM), S9 metabolic activation: without S9, exposure time: 24 hours | 1.24 | 2.14 | 72.8
concentration: 201 (µM), S9 metabolic activation: with S9, exposure time: 3-4 hours | 0.26 | 1.48 | 94.2
concentration: 201 (µM), S9 metabolic activation: without S9, exposure time: 24 hours | 1.46 | 2.78 | 80.5

O=C(c1ccc(OCCN2CCCCC2)cc1)c1c(-c2ccc(O)cc2)sc2cc(O)ccc12 [Raloxifene hydrochloride]
Conditions | hypodiploid nuclei frequency, CHO-K1 [2] [%] | micronucleus frequency, CHO-K1 [1] [%] | relative survival, CHO-K1 [3]
concentration: 4.5 (µM), S9 metabolic activation: with S9, exposure time: 3-4 hours | 0.16 | 1.06 | 124
concentration: 4.5 (µM), S9 metabolic activation: without S9, exposure time: 24 hours | 0.5 | 1.64 | 128
concentration: 5.63 (µM), S9 metabolic activation: with S9, exposure time: 3-4 hours | 0.24 | 1.28 | 115
concentration: 5.63 (µM), S9 metabolic activation: without S9, exposure time: 24 hours | 0.54 | 1.36 | 106
concentration: 7.04 (µM), S9 metabolic activation: with S9, exposure time: 3-4 hours | 0.18 | 1.46 | 116
concentration: 7.04 (µM), S9 metabolic activation: without S9, exposure time: 24 hours | 0.58 | 1.98 | 118
concentration: 8.8 (µM), S9 metabolic activation: with S9, exposure time: 3-4 hours | 0.22 | 1.74 | 110
concentration: 8.8 (µM), S9 metabolic activation: without S9, exposure time: 24 hours | 0.6 | 1.98 | 97.9
concentration: 11 (µM), S9 metabolic activation: with S9, exposure time: 3-4 hours | 0.2 | 1.38 | 95.4
concentration: 11 (µM), S9 metabolic activation: without S9, exposure time: 24 hours | 0.64 | 2 | 106
concentration: 13.7 (µM), S9 metabolic activation: with S9, exposure time: 3-4 hours | 0.32 | 1.26 | 98.7
concentration: 13.7 (µM), S9 metabolic activation: without S9, exposure time: 24 hours | 0.8 | 1.94 | 102
concentration: 17.2 (µM), S9 metabolic activation: with S9, exposure time: 3-4 hours | 0.22 | 1.14 | 79.8
concentration: 17.2 (µM), S9 metabolic activation: without S9, exposure time: 24 hours | 0.72 | 1.74 | 102
concentration: 21.5 (µM), S9 metabolic activation: with S9, exposure time: 3-4 hours | 0.18 | 1.04 | 90.1
concentration: 21.5 (µM), S9 metabolic activation: without S9, exposure time: 24 hours | 0.74 | 2.18 | 91.9
concentration: 26.8 (µM), S9 metabolic activation: with S9, exposure time: 3-4 hours | 0.24 | 1.3 | 141
concentration: 26.8 (µM), S9 metabolic activation: without S9, exposure time: 24 hours | 5.4 | 2.08 | 75.4
concentration: 33.6 (µM), S9 metabolic activation: with S9, exposure time: 3-4 hours | 0.38 | 1.08 | 104
concentration: 33.6 (µM), S9 metabolic activation: without S9, exposure time: 24 hours | 2.64 | 2.58 | 112
concentration: 41.9 (µM), S9 metabolic activation: with S9, exposure time: 3-4 hours | 0.3 | 1.64 | 112
concentration: 41.9 (µM), S9 metabolic activation: without S9, exposure time: 24 hours | 5.94 | 3.76 | 87
concentration: 52.4 (µM), S9 metabolic activation: with S9, exposure time: 3-4 hours | 0.3 | 1.4 | 91.2
concentration: 52.4 (µM), S9 metabolic activation: without S9, exposure time: 24 hours | 11.7 | 5.58 | 60.5
concentration: 65.5 (µM), S9 metabolic activation: with S9, exposure time: 3-4 hours | 0.4 | 1.42 | 69.4
concentration: 65.5 (µM), S9 metabolic activation: without S9, exposure time: 24 hours | 5.91 | 7.81 | 40.6
concentration: 81.9 (µM), S9 metabolic activation: with S9, exposure time: 3-4 hours | 0.28 | 2.16 | 50.1
concentration: 81.9 (µM), S9 metabolic activation: without S9, exposure time: 24 hours | – | – | 37.3
concentration: 102 (µM), S9 metabolic activation: with S9, exposure time: 3-4 hours | 0.22 | 2.87 | 43.6
concentration: 102 (µM), S9 metabolic activation: without S9, exposure time: 24 hours | – | – | 35.4
concentration: 128 (µM), S9 metabolic activation: with S9, exposure time: 3-4 hours | 0.3 | 5.2 | 42.9
concentration: 128 (µM), S9 metabolic activation: without S9, exposure time: 24 hours | – | – | 5.8
concentration: 160 (µM), S9 metabolic activation: with S9, exposure time: 3-4 hours | – | – | 10.1
concentration: 160 (µM), S9 metabolic activation: without S9, exposure time: 24 hours | – | – | 0.01
concentration: 200 (µM), S9 metabolic activation: with S9, exposure time: 3-4 hours | – | – | 1.08
concentration: 200 (µM), S9 metabolic activation: without S9, exposure time: 24 hours | – | – | 0.35
